# ± gives the standard deviation of the averaged measurements. This is one part of the list.
# Tested on: PfAP2-LT AP2 domain (GST-tagged)
# Assay: gcPBM binding intensity (ln(normalized median fluorescence intensity)); higher = stronger DNA binding
# Summary of the method: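 An Agilent 4 × 180k array carrying primer-extended double-stranded 36-bp intergenic genomic probes and negative controls received GST-tagged P. falciparum DNA-binding domains expressed in E. coli, about 25 μg on average, for 1 h. The binding buffer contained 1× PBS, 1% milk, 0.2 mg/ml BSA, 0.5% salmon testes DNA and 0.03% Triton X-100. Binding intensity is the top Masliner-normalised natural-log median intensity across replicate spots of either probe orientation, read after Alexa488 anti-GST antibody staining and a 488 nm scan.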
row,Sequence,gcPBM binding intensity (ln)
1,TATATATAAAGCAGTACACACATTTATTTTAGATAC [CACACA_site3387],8.95 ± 0.4
2,AGTGATAATTTAAAAAGTACAAATGAAATTTAGCTA [XGTACX_site3375],8.64 ± 0.41
3,AGAGAGAAAGCTATAACATGCAAAAATTTTTAGAAC [TGCATGCA_site420],9 ± 0.47
4,TTTGTAACTTCTTTCACACATATATATATATATATA [CACACA_site5603],9.54 ± 0.16
5,GTGTGCAAAAATTGTTGTACATTATATATAAAAAAA [XGTACX_site3246],9.17 ± 0.31
6,TTTCACATATATATGGTGCATATTTTATGTGTAAAT [GTGCAC_site9937],8.7 ± 0.33
7,CTATTATCGGTTCCTACACACAAATATAGATGTCTA [CACACA_site7651],9 ± 0.4
8,TATATAATACAAAAGGGTACATTAACATATTATATA [XGTACX_site3196],8.8 ± 0.4
9,AACAACTATTAATTTACACACATGTATATATTTTAC [CACACA_site3116],9.28 ± 0.4
10,AATAGCTAGCTGTGCACACAAACATATTTTCCAAAT [CACACA_site880],9.35 ± 0.32
11,ATATATATATAATTTTGTACATAATAGCAATTCTAA [XGTACX_site653],8.65 ± 0.33
12,GTTTTAAACAAAAATTGTACAATATAATCTTCCTAT [XGTACX_site2851],8.55 ± 0.37
13,GGATGGAGTAGTTAAGCATAATAAATAAAATTATGT [CACACA_negctrl_site578],8.78 ± 0.69
14,CAAAACCTTTTATGTACACACATATACATCCCACTT [CACACA_site5716],9.16 ± 0.53
15,AATATCATCCTTTTTTTTTATAAAATTTAAAATATA [CACACA_negctrl_site844],8.32 ± 0.45
16,ACCTCACAAATGAATACACACAAACATATATATTTA [CACACA_site4976],9.11 ± 0.33
17,TATTTTATTATACCAAGTACAAAATTTAAATATGAA [XGTACX_site5478],8.36 ± 0.43
18,ATTTTATGTTGAAAGTGTACGTATTAATATGTAGAA [XGTACX_site245],8.7 ± 0.36
19,TATAAGAGAATATATACACACAAAAATAAATACAGT [CACACA_site5000],9.47 ± 0.45
20,TCATTTCACAAACACACACACACAATATATTTCCTT [CACACA_site3905],9.77 ± 0.29
21,CCACAAGCAGCGGAAACATGCATATGTTGAAATAAT [TGCATGCA_site610],8.96 ± 0.42
22,AACAAAAAAAAAAAATGTACATATATATAATATATT [XGTACX_site3829],8.67 ± 0.52

row,Sequence,gcPBM binding intensity (ln)
1,GTTAAGAATATGTGTACACATATACATAAATACATA [CACACA_site4254],9.16 ± 0.42
2,TATATATATATATATTGTACCCTTTTCAAACTTCTC [XGTACX_site2812],9.39 ± 0.16
3,TAATAATATTATTAATGTACAAATATATATACATAT [XGTACX_site7348],8.65 ± 0.36
4,TTTTTCTTTTTCTTTTTTTCTTTTTTTTTTTTTTTC [GTGCAC_negctrl_site727],8.29 ± 0.66
5,CAGACGCACGTATTTGCACACATTGCCACGTAATTA [CACACA_site3349],9.28 ± 0.37
6,AACCATTCAACTGATGCATGCATTTAACATATAAAT [TGCATGCA_site961],8.91 ± 0.38
7,GGATTGATAAGTGGTACACACATATATATTATATAT [CACACA_site2866],9.12 ± 0.49
8,AAATATAAAAATAGCACACATATATACCTATATATA [CACACA_site4204],8.99 ± 0.38
9,GCATTGGGAATATATAGTACATATATATATATATAA [XGTACX_site2967],9.28 ± 0.35
10,TTAAAAAAAATTTCAAGTACAAAGTAATATATATAT [XGTACX_site5718],8.6 ± 0.45
11,AAAAAAATTGGGAAAAGTACTTGCAGCTAGCTAAAA [XGTACX_site5178],8.66 ± 0.36
12,AAACAAATATAATATTGTACATATATATATATATAT [XGTACX_site3105],9.44 ± 0.49
13,AATGCTATCATTAATGCACACATTTAAAATTAATAT [CACACA_site3548],8.84 ± 0.38
14,TTTAAAACCTTACATACACACAAATATATATATATA [CACACA_site677],9.295 ± 0.021
15,ATAATAAAAAATACAAGTACACATATTATATATATA [XGTACX_site5355],8.9 ± 0.43
16,CAAACAATTAAACAAACACACATATACAAGTATTTA [CACACA_site5177],8.98 ± 0.4
17,TTTAAGTTTTTACTTTGTACGTATTATAATAAAATC [XGTACX_site5683],8.54 ± 0.52
18,TGTTCTTTTTATACTACACACTGATAAAAAAACAAA [CACACA_site3001],8.46 ± 0.35
19,TATATTTACTTATGAAGTACATATATATATATATAT [XGTACX_site5069],9.19 ± 0.3
20,GCTTGAATAATCAATAGTACACACATATAAATATAT [XGTACX_site5964],9.09 ± 0.45
21,TTTATTTTCATATGAACACACATATTTATATTATAA [CACACA_site7165],9.02 ± 0.67
22,ATACATACATATATATGTACTTATATTTTACACATT [XGTACX_site1688],9.22 ± 0.3

row,Sequence,gcPBM binding intensity (ln)
1,TAATAAAAGAAAAAAAGTACAGACATATTGAATTTT [XGTACX_site5044],8.76 ± 0.37
2,TACAATCTAAGGAGCACACAAAAATGGATAAATATA [CACACA_site933],8.98 ± 0.49
3,TTTTTTTTTTTTTTTTGTACTCATACATACTATCAT [XGTACX_site3650],8.74 ± 0.46
4,CAGGCACTAATAAACACACACATATAAATATAAATA [CACACA_site6320],9.38 ± 0.59
5,AATTTCTACTATTGTATGCACTTTCATACATACATA [GTGCAC_site9924],9.04 ± 0.41
6,AGGTGTGAGACCACGTTCACAAAATAAAATACATAA [CACACA_negctrl_site326],8.98 ± 0.73
7,AACACAAGAACAGAACGTACACACACATATATATAT [XGTACX_site7347],9.84 ± 0.13
8,AAATAAATTAAAATAAATTAAATTAAATTAGCATTA [GTGCAC_negctrl_site531],8.13 ± 0.58
9,TGTATGTTATGTATATGTACATATCTTTGTATTTAT [XGTACX_site6920],9.1 ± 0.53
10,TATTTATAAGTTTACGCATGCATATAATTATTAATA [TGCATGCA_site311],8.62 ± 0.29
11,TTTTTTTTTTTTTTTGTGCACAATTATTTCAATTTT [GTGCAC_site9884],8.91 ± 0.49
12,ACCTTATTTATTATTGCATGTGACCATCAGATGGTA [TGCATGCA_site288],9.19 ± 0.29
13,TTTATTTTTTACCAAGTGCAATATATTATAATAATA,8.32 ± 0.38
14,TAATATTTATAATAGTGTACACAATTATAAACTGAA [XGTACX_site8426],8.7 ± 0.37
15,AAAGAAAAAAAATAATGTACTTATGTATTTCAGAAA [XGTACX_site3570],8.41 ± 0.59
16,TTCATACATAGAAAATGTACATATATATATATATAT [XGTACX_site1895],9.72 ± 0.085
17,ATATATATGCATAATACACACATCATATAATTAACC [CACACA_site1643],9.27 ± 0.37
18,TACAAAATATTTTACACACACATATAAATACAGATA [CACACA_site5447],9.38 ± 0.28
19,AAAAAAAAAAACAATACATGCATAATATTAATAAAA [TGCATGCA_site913],8.69 ± 0.49
20,AAGATATGTACTAATACACACACATATATATATATA [CACACA_site8249],9.86 ± 0.14
21,TATCCATGCATTTACACACACACAAAAAAAAATTCT [CACACA_site4100],9.6 ± 0.4
22,ATTTTTTTTTTTAATACACACAATTTTGATGAAGCA [CACACA_site3157],8.7 ± 0.38

row,Sequence,gcPBM binding intensity (ln)
1,TTTCATAAGAGAAAGACACACAAATATATATTTATT [CACACA_site827],8.7 ± 0.47
2,ACATTACCATATAAAACACACAAACATACATACATA [CACACA_site7709],9.23 ± 0.3
3,TATAATATTTGGTGCACACAAATTAACAACTGTTTA [CACACA_site3742],8.88 ± 0.29
4,AAGACACAAAAACACACACACATACATACATACATA [CACACA_site454],9.99 ± 0.31
5,TATGTTGATGATGATAGTACATATGAGTTCAAAAAA [XGTACX_site7712],8.72 ± 0.55
6,AATAAAAAAGGAAACAAATTAATATATATATATATA [CACACA_negctrl_site467],9.25 ± 0.26
7,TATATTTGGAAAACATGTACATATAACAATATGTAA [XGTACX_site324],8.71 ± 0.34
8,CGTACATAATTTTAATCACACACAAACAAACACATA [CACACA_site7947],9.42 ± 0.34
9,AAAAAAAGAAATAATAAAAAATATATATATATATAT [GTGCAC_negctrl_site702],9.31 ± 0.53
10,TGTTTTGTTGTGTATTGTACTAATATAAATATATAA [XGTACX_site1852],8.68 ± 0.31
11,TTTTATGATTGACACACACACAAAAAAAAAAAAAAA [CACACA_site7860],8.89 ± 0.42
12,TAAAAAAACGCACTCGTACACACATATTTTCTTTCT [CACACA_site3090],9.02 ± 0.41
13,TTTGAAATATATTTAGTGCATATATATTGATTATAA [GTGCAC_site9604],8.39 ± 0.38
14,ATGAATATAATGAAGTGTACATAAAAATAATAAATA [XGTACX_site2481],8.96 ± 0.5
15,ATCTAGTACATACATACACACAACAATGTTATGAGA [CACACA_site3989],9.06 ± 0.36
16,CAATTTTGCCCTTCCTGTACATATATTGAAAAATAT [XGTACX_site6388],8.54 ± 0.49
17,TTAAATAATATTAGCCGTACAATTTAAAGATAATAA [XGTACX_site8503],8.52 ± 0.35
18,GAAAGGGCAGGAACTATTAATACACTGATCGATAAG [CACACA_negctrl_site1458],8.94 ± 0.43
19,AATTATAGCTGTATCTGTACGCATTTATTTATAGAC [XGTACX_site5959],8.9 ± 0.27
20,TTTAATACTTTATATGCATGCAGAGAAAAATGCTTG [TGCATGCA_site286],8.7 ± 0.22
21,AAAAAAAAGTATGATTCTAAATTTATGTATATATAA [GTGCAC_negctrl_site669],8.32 ± 0.46
22,CTTATACATAAATTTTGTACACACAAAAAAAAAAAA [XGTACX_site2665],8.91 ± 0.52

# Source: the supplement of paper PMC11417369
